This is an account of results in PMC4336329 (PLoS ONE, 2015).

The campaign covered roughly 310,000 compounds. About 14,000 (4.5%) showed an effect of 50% or more. Effects have a minus sign here. Some of the results follow.
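Also: peak tail current of the secondary pulse compared with the same well before compound.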

For the experiment, the target named is human ether-à-go-go-related gene (hERG) potassium channel (human, UniProt Q12809). The experiment is described as follows: primary screen, population patch clamp on CHO cells stably expressing hERG.
human ether-à-go-go-related gene (hERG) potassium channel, sequence (Q12809 whole entry, looked up): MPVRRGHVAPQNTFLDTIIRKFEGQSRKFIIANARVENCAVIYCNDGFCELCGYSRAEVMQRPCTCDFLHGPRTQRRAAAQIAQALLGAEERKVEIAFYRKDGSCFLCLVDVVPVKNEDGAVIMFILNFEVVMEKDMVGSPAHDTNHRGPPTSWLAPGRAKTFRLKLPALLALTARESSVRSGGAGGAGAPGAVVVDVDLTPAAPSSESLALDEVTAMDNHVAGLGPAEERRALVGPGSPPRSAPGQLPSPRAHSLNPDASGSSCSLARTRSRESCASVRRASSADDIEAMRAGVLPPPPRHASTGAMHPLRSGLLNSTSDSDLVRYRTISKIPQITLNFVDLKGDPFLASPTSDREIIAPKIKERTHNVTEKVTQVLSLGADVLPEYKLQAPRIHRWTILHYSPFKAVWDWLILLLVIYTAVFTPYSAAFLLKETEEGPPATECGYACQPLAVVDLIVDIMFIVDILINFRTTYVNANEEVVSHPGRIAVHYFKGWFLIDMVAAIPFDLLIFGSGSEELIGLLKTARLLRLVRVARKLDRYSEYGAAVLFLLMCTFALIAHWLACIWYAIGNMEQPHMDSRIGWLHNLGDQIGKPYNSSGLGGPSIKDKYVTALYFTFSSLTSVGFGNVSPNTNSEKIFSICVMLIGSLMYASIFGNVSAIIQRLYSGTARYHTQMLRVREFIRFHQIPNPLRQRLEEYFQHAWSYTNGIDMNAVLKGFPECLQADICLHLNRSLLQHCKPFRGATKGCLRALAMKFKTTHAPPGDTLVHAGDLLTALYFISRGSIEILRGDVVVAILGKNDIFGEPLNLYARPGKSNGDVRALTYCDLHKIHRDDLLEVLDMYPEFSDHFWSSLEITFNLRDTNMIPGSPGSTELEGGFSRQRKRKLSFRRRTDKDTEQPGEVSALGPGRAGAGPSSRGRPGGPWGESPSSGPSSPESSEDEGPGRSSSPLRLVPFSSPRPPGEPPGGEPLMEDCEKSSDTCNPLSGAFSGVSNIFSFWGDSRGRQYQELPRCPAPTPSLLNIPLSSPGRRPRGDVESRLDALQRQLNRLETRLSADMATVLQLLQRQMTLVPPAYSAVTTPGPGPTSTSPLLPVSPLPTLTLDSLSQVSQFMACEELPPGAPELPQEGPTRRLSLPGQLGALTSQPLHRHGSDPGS
As to `CC(C)OC(=O)c1cc(NC(=S)Nc2ccc([N+](=O)[O-])cc2)cc(C(=O)OC(C)C)c1`, the “hERG current change (%, negative = inhibition) at 10uM” value was determined as 18.4%. To `C=CCn1c(C)cc(C(=O)COC(=O)C2CC(=O)N(CCc3ccc(OC)c(OC)c3)C2)c1C` (centres unmarked) belongs -0.34%; to `COc1ccc(NC(=O)c2cc(S(=O)(=O)N3CCOCC3)ccc2N2CCOCC2)cc1`, -7.89%.

`O=C1CN(c2nc(-c3cccnc3)nc3scc(-c4ccccc4)c23)CCN1`: the “hERG current change (%, negative = inhibition) at 10uM” value is -19.9%. As to `Cc1ccccc1NC(=O)Cc1nc(COC(=O)c2cc(Br)ccc2O)cs1`, the “hERG current change (%, negative = inhibition) at 10uM” value is given as 5.79%. Then `COc1cc([N+](=O)[O-])ccc1NC(=O)CN1CCN(C(=O)c2ccco2)CC1`, with -78.4%; and `Cc1ccnc(NC(=O)CNC(=O)c2ccc3ccccc3c2)c1`, with -12.5%. To `CCCCn1c(N)c(N(CCC(C)C)C(=O)CC2CCCCC2)c(=O)[nH]c1=O` belongs 10.9%. To `COc1cc(-c2ccccc2)nc2ccccc12` belongs -23%; to `N#CC1=C2SCN(c3ccccc3)CN2C(=O)CC1c1ccccc1Cl` (centres unmarked), 16.2%; to `O=C(COc1ccccc1)NCc1n[nH]c(=S)n1-c1ccccc1`, 17.5%. For the molecule `O=C1CSC(c2ccc([N+](=O)[O-])cc2)N1c1ccccc1` (centres unmarked), the “hERG current change (%, negative = inhibition) at 10uM” value is recorded as -24.8%. On to `Fc1ccccc1OCCCCn1cncn1`, for which the “hERG current change (%, negative = inhibition) at 10uM” value is -5.81%. Turning to `Cc1ccc(C(=O)NCc2ccco2)c(C)c1`, the “hERG current change (%, negative = inhibition) at 10uM” value is given as 20.5%. For the molecule `O=C(NCc1ccc2c(c1)OCO2)c1cc(-c2cc(Cl)ccc2O)n[nH]1`, the “hERG current change (%, negative = inhibition) at 10uM” value is listed as 11.6%. To `CC1CC(C)CN(C(=O)CSc2nnc(-c3ccco3)o2)C1` (centres unmarked) belongs 1.93%. Then `Cc1nnc(NC(=O)CSc2nnc(CNC(=O)c3ccccc3)o2)s1`, with 12.5%; and `Cc1ccc(SCC(=O)c2cc(C)c(O)c(C)c2)cc1`, with -3.19%.

Consider `CCOC(=O)c1cn2nc(Oc3ccccc3)ccc2n1`, for which the “hERG current change (%, negative = inhibition) at 10uM” value is -12.8%. In the case of `COCCN(C(=O)CNC(=O)c1ccco1)C(C(=O)NC1CCCC1)c1cccc(OC)c1` (centres unmarked), the “hERG current change (%, negative = inhibition) at 10uM” value worked out at 16.8%. As to `O=C(NNC(=O)C12CC3CC(CC(O)(C3)C1)C2)c1ccccc1O`, the “hERG current change (%, negative = inhibition) at 10uM” value worked out at 2.56%. To `CN(C(=O)COc1ccccc1)c1nnc(-c2cccnc2)s1` belongs -7.56%; to `CCCCNC(=O)CSc1nnc(-c2ccco2)n1C`, -1.72%; to `CC(=O)Nc1ccc(C(=O)N(C)C(C(=O)Nc2ccccc2)c2ccccn2)cc1` (centres unmarked), -7.53%. On to `COCCn1c(-c2cc(OC)c(OC)c(OC)c2)nc2oc3ccccc3c(=O)c2c1=O`, for which the “hERG current change (%, negative = inhibition) at 10uM” value was 4.4%. To `Cc1ccc(OCCCC(=O)Nc2cc(Cl)ccc2-n2cncn2)cc1` belongs -22.4%; to `COc1ccccc1NC(=O)C(C)Sc1nnnn1C` (centres unmarked), 4.37%; to `CC(C)C(NC(=O)CN1C(=O)c2ccccc2C1=O)c1ccccc1` (centres unmarked), 18.9%. On to `N/C(Cc1ccc([N+](=O)[O-])cc1)=N\OC(=O)c1ccc([N+](=O)[O-])cc1`, for which the “hERG current change (%, negative = inhibition) at 10uM” value was -57.6%.

As for `COc1ccc(Cl)cc1C(=O)NNC(=O)c1cccnc1`, the “hERG current change (%, negative = inhibition) at 10uM” value is recorded as -7.45%.

`O=C(CSc1nnc(NC(=O)C2CC2)s1)NCc1ccco1`: the “hERG current change (%, negative = inhibition) at 10uM” value is reported as -4.21%. For `N#CCCn1cc(C(N)=O)c(-c2ccc3ccccc3c2)n1`, the “hERG current change (%, negative = inhibition) at 10uM” value is on record as 13.5%.

For the molecule `COc1ccc(/C=C/C(=O)NCC2COc3ccccc3O2)cc1OC` (centres unmarked), the “hERG current change (%, negative = inhibition) at 10uM” value is reported as -17%. Then `CCN(CC(=O)Nc1cc(S(=O)(=O)N2CCCCC2)ccc1Cl)Cc1ccccc1`, with 14.3%; and `CC(C)Oc1ccc(C(=O)Nc2c3c(nn2C(C)(C)C)CS(=O)(=O)C3)cc1`, with -11.9%; and `CCN(CC)S(=O)(=O)c1cccc(NC(=O)COC(=O)C2=COCCO2)c1`, with -13.8%.

On to `COc1ccc(Cn2c(CCC(=O)Nc3ccc(C)cc3)nc3cccnc32)cc1`, for which the “hERG current change (%, negative = inhibition) at 10uM” value is 4.81%. To `CCOC(=O)C1CCN(c2cc3c(cc2NC(=O)c2ccccc2F)n(C)c(=O)n3C)CC1` belongs 7.95%; to `O=C(NC(=S)Nc1nc(-c2ccc(Br)cc2)cs1)c1cccnc1`, 3.69%. For the molecule `Cc1cc(NC(=O)CSc2nnnn2-c2ccccc2F)no1`, the “hERG current change (%, negative = inhibition) at 10uM” value is 16.1%. For the molecule `CCOC(=O)C1CCCc2c1[nH]c1c(C(=O)O)cccc21` (centres unmarked), the “hERG current change (%, negative = inhibition) at 10uM” value is recorded as 13.3%. Then `COC(=O)C(C)N(C#N)c1nc(C)nc(C)n1` (centres unmarked), with -2.45%; and `N#Cc1c(-c2ccccc2)nc(SCc2ccc(Cl)cc2)[nH]c1=O`, with 21.9%; and `N#Cc1c(NC(=O)CCn2cnc3ccccc3c2=O)oc(-c2ccccc2)c1-c1ccccc1`, with 13.6%.
